Laboratory results as given in PubChem BioAssay AID256 (DTP/NCI, 2004).
Where “and” joins values, the source holds several entries; their conditions need not be identical. Equal entries are not always repeated. Further values from the same series stand in other lists. Toxic doses and inconclusive results are not listed.

System: CD2F1 mice, L1210 leukemia ip, survival T/C
Test: NCI In Vivo Anticancer Drug Screen. Data for tumor model L1210 Leukemia (intraperitoneal) in CD2F1 (CDF1) mice
Conditions: higher = longer survival
Summary of the method: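 Mice carrying a transplanted tumor received test compound or vehicle alone. The value is the measurement in the treated group divided by that in the vehicle-treated control group.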

In the case of `O=C1c2ccccc2C(=O)c2c(NCCNCCO)ccc(NCCNCCO)c21`, the T/C (endpoint: mean survival time, dose: 0.43 mg/kg/injection, schedule: Q01DX009 (ip), vehicle: Klucel (hydroxypropylcellulose) (HPC)) is reported as 106 % of control, the T/C (endpoint: mean survival time, dose: 0.87 mg/kg/injection, schedule: Q01DX009 (ip), vehicle: Klucel (hydroxypropylcellulose) (HPC)) is reported as 122 % of control and the T/C (endpoint: mean survival time, dose: 1.0 mg/kg/injection, schedule: Q01DX005 (iv), vehicle: saline) is reported as 106 % of control. The T/C (endpoint: mean survival time, dose: 2.0 mg/kg/injection, schedule: Q01DX005 (iv), vehicle: clinical formulation) was 105 % of control, the T/C (endpoint: mean survival time, dose: 2.0 mg/kg/injection, schedule: Q01DX009 (ip), vehicle: acid diluted with saline) was 226 % of control and the T/C (endpoint: mean survival time, dose: 3.5 mg/kg/injection, schedule: Q01DX009 (ip), vehicle: Klucel (hydroxypropylcellulose) (HPC)) was 117 % of control. The T/C (endpoint: mean survival time, dose: 4.0 mg/kg/injection, schedule: Q01DX005 (iv), vehicle: saline) was 109 % of control and 112 % of control, the T/C (endpoint: mean survival time, dose: 4.0 mg/kg/injection, schedule: Q01DX005 (oral), vehicle: acid diluted with saline) was 98 % of control and 101 % of control and the T/C (endpoint: mean survival time, dose: 4.0 mg/kg/injection, schedule: Q01DX005 (oral), vehicle: saline) was 104 % of control. The T/C (endpoint: mean survival time, dose: 4.0 mg/kg/injection, schedule: Q01DX009 (ip), vehicle: acid diluted with saline) was 151 % of control and 180 % of control, the T/C (endpoint: mean survival time, dose: 4.0 mg/kg/injection, schedule: Q01DX009 (ip), vehicle: saline with Tween-80) was 207 % of control and the T/C (endpoint: mean survival time, dose: 7.0 mg/kg/injection, schedule: Q01DX009 (ip), vehicle: Klucel (hydroxypropylcellulose) (HPC)) was 119 % of control. The T/C (endpoint: mean survival time, dose: 8.0 mg/kg/injection, schedule: Q01DX005 (oral), vehicle: acid diluted with saline) was 101 % of control and 104 % of control, the T/C (endpoint: mean survival time, dose: 8.0 mg/kg/injection, schedule: Q01DX009 (ip), vehicle: acid diluted with saline) was 228 % of control and 316 % of control and the T/C (endpoint: mean survival time, dose: 8.0 mg/kg/injection, schedule: Q01DX009 (ip), vehicle: saline with Tween-80) was 270 % of control. For the same compound, the T/C (endpoint: mean survival time, dose: 8.0 mg/kg/injection, schedule: Q04DX003 (iv), vehicle: saline) was 108 % of control, the T/C (endpoint: mean survival time, dose: 11.7 mg/kg/injection, schedule: Q01DX001 (iv), vehicle: saline) was 108 % of control and the T/C (endpoint: mean survival time, dose: 14.0 mg/kg/injection, schedule: Q01DX009 (ip), vehicle: Klucel (hydroxypropylcellulose) (HPC)) was 152 % of control. The T/C (endpoint: mean survival time, dose: 16.0 mg/kg/injection, schedule: Q01DX005 (oral), vehicle: acid diluted with saline) was 108 % of control and 96 % of control and 98 % of control, the T/C (endpoint: mean survival time, dose: 16.0 mg/kg/injection, schedule: Q01DX009 (ip), vehicle: acid diluted with saline) was 122 % of control and 365 % of control and the T/C (endpoint: mean survival time, dose: 16.0 mg/kg/injection, schedule: Q04DX003 (ip), vehicle: water) was 105 % of control. For the same compound, the T/C (endpoint: mean survival time, dose: 16.0 mg/kg/injection, schedule: Q04DX003 (iv), vehicle: saline) was 110 % of control, the T/C (endpoint: mean survival time, dose: 19.4 mg/kg/injection, schedule: Q01DX001 (iv), vehicle: saline) was 105 % of control and the T/C (endpoint: mean survival time, dose: 28.0 mg/kg/injection, schedule: Q01DX009 (ip), vehicle: Klucel (hydroxypropylcellulose) (HPC)) was 217 % of control. For the same compound, the T/C (endpoint: mean survival time, dose: 32.0 mg/kg/injection, schedule: Q01DX005 (oral), vehicle: acid diluted with saline) was 101 % of control, the T/C (endpoint: mean survival time, dose: 32.0 mg/kg/injection, schedule: Q01DX009 (ip), vehicle: saline with Tween-80) was 90 % of control and the T/C (endpoint: mean survival time, dose: 32.0 mg/kg/injection, schedule: Q01DX009 (ip), vehicle: saline) was 107 % of control. For the same compound, the T/C (endpoint: mean survival time, dose: 32.4 mg/kg/injection, schedule: Q01DX001 (iv), vehicle: saline) was 107 % of control, the T/C (endpoint: mean survival time, dose: 64.0 mg/kg/injection, schedule: Q01DX005 (oral), vehicle: acid diluted with saline) was 89 % of control and 101 % of control and the T/C (endpoint: mean survival time, dose: 64.0 mg/kg/injection, schedule: Q01DX005 (oral), vehicle: saline) was 104 % of control. For the same compound, the T/C (endpoint: mean survival time, dose: 95.0 mg/kg/injection, schedule: Q01DX009 (ip), vehicle: Klucel (hydroxypropylcellulose) (HPC)) was 86 % of control, the T/C (endpoint: mean survival time, dose: 128.0 mg/kg/injection, schedule: Q01DX005 (oral), vehicle: acid diluted with saline) was 101 % of control and 110 % of control and the T/C (endpoint: mean survival time, dose: 128.0 mg/kg/injection, schedule: Q01DX005 (oral), vehicle: saline) was 109 % of control. The T/C (endpoint: median survival time, dose: 0.25 mg/kg/injection, schedule: Q01DX009 (ip), vehicle: clinical formulation) was 112 % of control, the T/C (endpoint: median survival time, dose: 1.0 mg/kg/injection, schedule: Q01DX009 (sc), vehicle: saline) was 102 % of control and the T/C (endpoint: median survival time, dose: 2.0 mg/kg/injection, schedule: Q01DX009 (ip), vehicle: saline) was 158 % of control. The T/C (endpoint: median survival time, dose: 2.0 mg/kg/injection, schedule: Q01DX009 (sc), vehicle: saline) was 105 % of control, the T/C (endpoint: median survival time, dose: 4.0 mg/kg/injection, schedule: Q01DX005 (iv), vehicle: water) was 110 % of control and the T/C (endpoint: median survival time, dose: 4.0 mg/kg/injection, schedule: Q01DX009 (ip), vehicle: saline) was 160 % of control. The T/C (endpoint: median survival time, dose: 4.0 mg/kg/injection, schedule: Q01DX009 (oral), vehicle: saline) was 115 % of control, the T/C (endpoint: median survival time, dose: 4.0 mg/kg/injection, schedule: Q01DX009 (sc), vehicle: Klucel (hydroxypropylcellulose) (HPC)) was 119 % of control and 123 % of control and the T/C (endpoint: median survival time, dose: 4.0 mg/kg/injection, schedule: Q01DX009 (sc), vehicle: saline) was 103 % of control. For the same compound, the T/C (endpoint: median survival time, dose: 8.0 mg/kg/injection, schedule: Q01DX005 (oral), vehicle: Klucel (hydroxypropylcellulose) (HPC)) was 106 % of control and 102 % of control, the T/C (endpoint: median survival time, dose: 8.0 mg/kg/injection, schedule: Q01DX009 (ip), vehicle: Klucel (hydroxypropylcellulose) (HPC)) was 177 % of control and 370 % of control and the T/C (endpoint: median survival time, dose: 8.0 mg/kg/injection, schedule: Q01DX009 (ip), vehicle: saline) was 200 % of control. The T/C (endpoint: median survival time, dose: 8.0 mg/kg/injection, schedule: Q01DX009 (oral), vehicle: saline) was 115 % of control, the T/C (endpoint: median survival time, dose: 8.0 mg/kg/injection, schedule: Q01DX009 (sc), vehicle: saline) was 105 % of control and the T/C (endpoint: median survival time, dose: 16.0 mg/kg/injection, schedule: Q01DX005 (oral), vehicle: Klucel (hydroxypropylcellulose) (HPC)) was 100 % of control. For the same compound, the T/C (endpoint: median survival time, dose: 16.0 mg/kg/injection, schedule: Q01DX009 (ip), vehicle: Klucel (hydroxypropylcellulose) (HPC)) was 174 % of control and 370 % of control, the T/C (endpoint: median survival time, dose: 16.0 mg/kg/injection, schedule: Q01DX009 (ip), vehicle: saline) was 191 % of control and the T/C (endpoint: median survival time, dose: 16.0 mg/kg/injection, schedule: Q01DX009 (oral), vehicle: saline) was 105 % of control. For the same compound, the T/C (endpoint: median survival time, dose: 16.0 mg/kg/injection, schedule: Q01DX009 (sc), vehicle: Klucel (hydroxypropylcellulose) (HPC)) was 186 % of control, the T/C (endpoint: median survival time, dose: 32.0 mg/kg/injection, schedule: Q01DX005 (oral), vehicle: Klucel (hydroxypropylcellulose) (HPC)) was 100 % of control and the T/C (endpoint: median survival time, dose: 32.0 mg/kg/injection, schedule: Q01DX009 (ip), vehicle: Klucel (hydroxypropylcellulose) (HPC)) was 113 % of control and 209 % of control. The T/C (endpoint: median survival time, dose: 32.0 mg/kg/injection, schedule: Q01DX009 (oral), vehicle: saline) was 105 % of control, the T/C (endpoint: median survival time, dose: 64.0 mg/kg/injection, schedule: Q01DX005 (oral), vehicle: Klucel (hydroxypropylcellulose) (HPC)) was 104 % of control and the T/C (endpoint: median survival time, dose: 64.0 mg/kg/injection, schedule: Q01DX009 (ip), vehicle: saline) was 97 % of control. For the same compound, the T/C (endpoint: median survival time, dose: 64.0 mg/kg/injection, schedule: Q01DX009 (oral), vehicle: saline) was 110 % of control, the T/C (endpoint: median survival time, dose: 128.0 mg/kg/injection, schedule: Q01DX005 (oral), vehicle: Klucel (hydroxypropylcellulose) (HPC)) was 108 % of control and 106 % of control and the T/C (endpoint: median survival time, dose: 128.0 mg/kg/injection, schedule: Q01DX009 (oral), vehicle: saline) was 110 % of control. The T/C (endpoint: median survival time, dose: 128.0 mg/kg/injection, schedule: Q01DX009 (sc), vehicle: Klucel (hydroxypropylcellulose) (HPC)) was 197 % of control, the T/C (endpoint: median survival time, dose: 256.0 mg/kg/injection, schedule: Q01DX005 (oral), vehicle: Klucel (hydroxypropylcellulose) (HPC)) was 108 % of control and the T/C (endpoint: median survival time, dose: 256.0 mg/kg/injection, schedule: Q01DX009 (oral), vehicle: saline) was 112 % of control. For the same compound, the T/C (endpoint: median survival time, dose: 512.0 mg/kg/injection, schedule: Q01DX009 (oral), vehicle: saline) was 101 % of control.
